This is an account of results in ChEMBL document CHEMBL4888484, “Replenishing the malaria drug discovery pipeline: Screening and hit evaluation of the MMV Hit Generation Library 1 (HGL1) against asexual blood stage Plasmodium falciparum ,using a nano luciferase reporter read-out” (2022).

The structures appear in SMILES notation. Hit rate of the full screen: of about 150,000 compounds, about 540 (0.36%) showed an effect of 50% or more. This is one part of the list.

By % Inhibition is commonly meant the change of the read-out against control, counted positive when it falls.

The assay deals with Plasmodium falciparum. Nature of the assay: Primary screen in NF54 nanoGlo assay, in single point, at 2uM, 72h; a lower Z score goes with more inhibition. Type of assay: functional, Erythrocyte. To be noted: timepoint 72 hour.
Take `CCc1nc(C)c(CC(=O)N2CC[C@H](OC)C2)c(=O)[nH]1`: the “% Inhibition” value is given as -13% and the Z score was 2.66.

Take `CC(C)c1noc(C(C)N2CCCN(C(=O)C3CCCO3)CC2)n1` (stereo unspecified): the “% Inhibition” value is recorded as -18% and the Z score was 1.51.

For the compound `Cc1ncsc1C(=O)NC1CCC(F)(F)CC1`, the “% Inhibition” value is given as -8% and the Z score came out at 1.52.

On to `Cc1ccc(CNC(=O)C(=O)Nc2cccc(N3CCCC3=O)c2)cc1`, for which the “% Inhibition” value is -3% and the Z score is on record as 0.47.

With `CCc1c(C)sc(NC(=O)C(C)(C)C)c1C#N`, the “% Inhibition” value amounted to 31% and the Z score is listed as -3.52.

In the case of `O=C1C[C@H]2CC[C@@H](CN1)N2C(=O)Cn1nnc2ccccc2c1=O`, the “% Inhibition” value was -8% and the Z score stood at 1.29.

On to `Cc1cc(C)cc(Oc2cnn(-c3ccccc3)c(=O)c2Nc2cccc(C(=O)NCc3ccccn3)c2)c1`, for which the “% Inhibition” value is -14% and the Z score stood at 1.25.

As to `Cc1nc(-c2c(-c3ccccc3)ncn2C2CC(C)(C)NC(C)(C)C2)c[nH]1`, the “% Inhibition” value stood at 2% and the Z score is recorded as -0.28.

In the case of `O=C(N1CCCC1)N1CCC2(CCN(C/C=C/c3ccco3)CC2)CC1`, the “% Inhibition” value is on record as -3% and the Z score is recorded as 0.51.

`Cc1ncsc1CN(C)c1ncnc2[nH]nc(C)c12`: the “% Inhibition” value is given as -9% and the Z score amounted to 1.39.

As to `O=C(Cc1nnc2cc(-c3nc(C4CC4)no3)ccn12)Nc1cccc(F)c1`, the “% Inhibition” value is recorded as -6% and the Z score worked out at 1.05.

In the case of `Cc1cc(-c2csc(NC(=O)c3cncnc3C)n2)c(F)cc1F`, the “% Inhibition” value is 0% and the Z score is recorded as -0.02.

For `Cc1c(CNCCN2CCC[C@H](CO)C2)[nH]c2ccc(Cl)cc12`, the “% Inhibition” value is -1% and the Z score worked out at 0.11.

As for `Cc1nnc(CNC(=O)C2C(C)C2(F)F)n1C` (stereo unspecified), the “% Inhibition” value is given as -7% and the Z score came to 0.81.

For the compound `C[C@H]1CN(C(=O)c2cc(N3CCCC3=O)ccc2F)CCN1CC(C)(C)O`, the “% Inhibition” value is -16% and the Z score was 2.55.

Regarding `CC(=O)NCCCC(=O)N[C@@H](C)c1ccc(C)nc1`, the “% Inhibition” value is on record as -14% and the Z score is 1.49.

With `Cn1cc(-c2nn(S(=O)(=O)c3ccccc3)c(-c3cnn(C)c3)c2Cl)cn1`, the “% Inhibition” value is recorded as 37% and the Z score is listed as -4.17.

For the compound `COc1cccc(-c2noc3nc(C)cc(C(=O)N[C@@H](C)CN4CCOCC4)c23)c1`, the “% Inhibition” value is 1% and the Z score is recorded as -0.17.

With `Cc1cc2nn(CC(=O)NCc3ccccc3Cl)c(=O)n2c(-c2ccccc2)n1`, the “% Inhibition” value is on record as -6% and the Z score is 1.02.

Consider `O=C1CCCC(=O)N1c1ccc(NC(=O)C2(c3ccc(Cl)cc3)CCOCC2)cc1`, for which the “% Inhibition” value is 35% and the Z score was -3.93.

Consider `O=C(Cn1c(=O)n(CCc2ccccc2)c(=O)c2ccccc21)NCCCc1ccccc1`, for which the “% Inhibition” value is recorded as -5% and the Z score was 0.68.

Consider `Cc1nc[nH]c1C(=O)N1CCC[C@H](c2[nH]ncc2-c2ccccc2)C1`, for which the “% Inhibition” value is on record as -10% and the Z score is 1.05.

As for `CN(C)C(=O)[C@@]12CN(C(=O)COc3ccccc3)C[C@@H]1CN(C(=O)c1ccccc1)C2`, the “% Inhibition” value is reported as -1% and the Z score is 0.09.

Regarding `Cc1nc(C(=O)N2CCC[C@H](CCC(=O)N3CCN(c4ccccn4)CC3)C2)cs1`, the “% Inhibition” value was -9% and the Z score is recorded as 1.12.

On to `C[C@H](NC(N)=O)C(=O)NCc1ccc(Cl)s1`, for which the “% Inhibition” value stood at 0% and the Z score is -0.04.

With `Cc1ccccc1OC1CCCCC1NC(=O)c1nnn(C2CCNC2)c1C` (stereo unspecified), the “% Inhibition” value stood at 2% and the Z score is recorded as -0.38.

On to `CC(=O)N1CCC(N[C@H]2CCCc3nc(-c4ccccc4)ncc32)CC1`, for which the “% Inhibition” value is reported as -13% and the Z score was 1.75.

`CC(=O)N1CCC[C@H]1c1nc(CC(C)C)nn1Cc1ccccc1Cl`: the “% Inhibition” value was -11% and the Z score was 2.28.

As for `O=C1c2cccc3c2N(CCC3)C(=O)[C@]1(F)c1ccccc1`, the “% Inhibition” value was -14% and the Z score is 1.67.

Take `COc1ccc(-c2cc(C(=O)NCc3ccccn3)n[nH]2)cc1S(=O)(=O)N1CCCCC1`: the “% Inhibition” value is on record as -4% and the Z score was found to be 0.62.

Regarding `Cn1nc2c(c1C(=O)NC1(c3c(F)cccc3F)COC1)CCC2`, the “% Inhibition” value was -5% and the Z score is 0.95.

Regarding `CC(=O)[C@@H]1C[C@H](C(=O)NCc2ccccc2CN2CCOCC2)C1(C)C`, the “% Inhibition” value is reported as -2% and the Z score is 0.23.

Turning to `Cc1cccc(-c2ccc(N3CCC(C(=O)NC4CCCC4)CC3)nn2)c1`, the “% Inhibition” value is on record as -16% and the Z score turned out to be 1.53.

`CCc1nnsc1C(=O)NCC1(c2ccccc2)CC1`: the “% Inhibition” value came out at 1% and the Z score is -0.08.

Consider `Cc1cccn2cc(Cn3c(=O)n(CC4CC4)c4ccc(C(=O)O)cc43)nc12`, for which the “% Inhibition” value is on record as 14% and the Z score was -1.99.

For `Cc1nn(C)c(Oc2cccnc2)c1NC(=O)c1ccccc1`, the “% Inhibition” value is recorded as -3% and the Z score was 0.56.

With `N#C[C@@H](C(=O)COC1CCCC1)c1ccccn1`, the “% Inhibition” value is reported as -15% and the Z score came to 1.68.

In the case of `Cc1nc(N(C)C)nc(N2CCC(N3CCCCC3)CC2)c1C`, the “% Inhibition” value is reported as -4% and the Z score is given as 0.81.

On to `CNC(=O)c1cc(Oc2cccc(Oc3ncncc3-c3ccccc3)c2C)ccn1`, for which the “% Inhibition” value turned out to be 6% and the Z score is recorded as -1.3.

With `Cc1ccnn1CCC(=O)N1CC[C@@]2(CCCN(CCC3CCCCC3)C2)C1`, the “% Inhibition” value was found to be 4% and the Z score was -0.52.

For the compound `Nc1cnn(Cc2nc(-c3ccsc3)no2)c1`, the “% Inhibition” value is given as -36% and the Z score was 4.21.

For `Cc1noc([C@@H]2CCCO[C@H]2C2CCN(c3nc(C)ns3)CC2)n1`, the “% Inhibition” value worked out at 4% and the Z score was -0.71.

Regarding `CCN(CC(F)(F)F)C(=O)NCc1ccc2[nH]cnc2c1`, the “% Inhibition” value was -2% and the Z score came to 0.4.
